The campaign covered roughly 280,000 compounds. About 100 (0.036%) were called active. The shares of active, inactive and inconclusive entries below differ from those in the screen. Calls come from the whole dose curve; as a rule, active = well fitted inhibition curve with a large enough effect in the signal ratio, with a control signal flat (not every such curve was filed as active); inconclusive = small, poorly fitted or top-dose-only effect, or effect the other way, or a change in a side signal; inactive = no such curve, though single readings can be large or run the other way; the % refers to the signal ratio. A potency beside an inconclusive call is a rough fit, not a confirmed value. A note “side channel” means that the fit belongs to a control or component signal, not to the main read-out.
target: Muscleblind-like protein 1 (Homo sapiens) (UniProt Q9NR56); experiment: qHTS Assay for Inhibitors of MBNL1-poly(CUG) RNA binding; settings: TR-FRET MBNL1-His/biotin-(CUG)12 binding, 665/545 ratio; activity change, negative = inhibition: at 57.5 µM (top of the series)
How it was run: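 Ratiometric TR-FRET (665 over 545 nm, excitation 340 nm) tracks disruption of MBNL1-His/biotin-(CUG)12 complex after 60 min at room temperature, with compounds at 92 nM to 58 uM final.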
% is set by controls: 0 for no effect and ±100 for the full control effect; potency is the fitted concentration of half-maximal effect; tags give direction and shape of the fitted curve or compound fluorescence and quenching.

Sequence of UniProt Q9NR56 (Q9NR56 whole entry, looked up): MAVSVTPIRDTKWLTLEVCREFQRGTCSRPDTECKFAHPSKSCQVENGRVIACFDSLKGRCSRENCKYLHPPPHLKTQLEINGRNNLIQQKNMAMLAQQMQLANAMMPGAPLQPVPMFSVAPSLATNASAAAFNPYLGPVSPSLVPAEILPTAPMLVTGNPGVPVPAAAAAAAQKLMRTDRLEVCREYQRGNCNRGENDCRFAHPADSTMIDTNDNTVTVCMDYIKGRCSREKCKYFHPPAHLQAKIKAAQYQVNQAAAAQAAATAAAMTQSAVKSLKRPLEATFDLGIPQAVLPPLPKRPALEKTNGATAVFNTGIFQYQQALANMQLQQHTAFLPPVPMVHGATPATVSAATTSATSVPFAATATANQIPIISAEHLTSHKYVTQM

SMILES	Potency	activity change, negative = inhibition
CC1CCC2C(=O)N(c3ccc(C(=O)NCc4ccccc4)cc3)C(=O)C2C1 (stereo not drawn)	inconclusive: 1.26 µM [quencher, side channel, partial curve]	
COc1ccccc1CCNC(=O)Cn1c(=O)oc2ccccc21	inconclusive: 12.6 µM [quencher, side channel, partial curve]	
CCC(C)[C@@H](NC(=O)OC(C)(C)C)c1nnc(S(=O)(=O)Cc2cccc(C)c2)o1 (stereo partly drawn)		inactive: -8.07%
COc1cccc(/C=C2\SC(=S)N(C(C(=O)O)c3ccccc3)C2=O)c1OC (stereo not drawn)		inactive: 6.67%
COc1ccccc1N1CCN(CCCCOc2c(OC)cccc2OC)CC1		inactive: -10.5%
CNc1nc2cc([N+](=O)[O-])c([N+](=O)[O-])cc2nc1NC	inconclusive: 25.1 µM [quencher, side channel, single point]	
COC(CNC(=O)c1ccc2nc3ccccc3c(=O)n2c1)OC	inconclusive: 15.8 µM [quencher, side channel, partial curve]	
COc1ccc(-n2ccnc2CN2CCN(C3CCCC3)C(CCO)C2)cc1 (stereo not drawn)	inconclusive: 6.31 µM [quencher, single point]	
Cn1ccnc1SCC(=O)Nc1ccc2c(c1)COC2=O	inconclusive: 8.91 µM [quencher, side channel, single point]	
Oc1ccccc1N=Nc1nc(-c2ccccc2)c(-c2ccccc2)[nH]1	inconclusive: 28.2 µM [quencher, side channel, single point]	
CCOC(=O)CC(=O)CSc1nc2cc(C)ccc2cc1C	inconclusive: 0.708 µM [quencher, side channel, full curve, poor fit]	
COc1cc(OC)c2c(c1)C(=O)c1cc(OC)cc(OC)c1C2=O	inconclusive: 4.47 µM [quencher, side channel, partial curve, poor fit]	
COc1ccccc1N1CCN(Cc2cc(=O)c(OCC(=O)NC(C)C)co2)CC1		inactive: -3.2%
COc1cccc(NC=C2C(=O)OC3(CCCCC3)OC2=O)c1		inactive: -10.7%
CC(C)C(NS(=O)(=O)c1cccc2nsnc12)C(=O)NC1CCCCC1 (stereo not drawn)	inconclusive: 15.8 µM [quencher, side channel, partial curve]	
CC(=O)O[C@@]12CO[C@@H]1C[C@H](O)[C@@]1(C)C(=O)[C@H](O)C3=C(C)[C@@H](OC(=O)[C@H](O)[C@@H](NC(=O)OC(C)(C)C)c4ccccc4)C[C@](O)([C@@H](OC(=O)c4ccccc4)[C@H]21)C3(C)C	inconclusive: 3.55 µM [quencher, side channel, partial curve]	
CCOc1cc(/C=C2\C(=O)NN(c3ccccc3)C2=O)cc([N+](=O)[O-])c1O	inconclusive: 31.6 µM [quencher, side channel, single point]	
O=S(=O)(c1ccc(Cl)cc1)N(CCCN1CCOCC1)Cc1cccs1		inactive: -0.645%
Cn1cc([N+](=O)[O-])c(C(=O)N/N=C\c2c[nH]c3ccccc23)n1	inconclusive: 28.2 µM [quencher, side channel, partial curve]	

SMILES	Potency	activity change, negative = inhibition
CC(=O)N(Cc1cccnc1)c1cccc(-c2nc3ccccc3s2)c1	inconclusive: 31.6 µM [quencher, side channel, single point]	
COc1ccc(NS(=O)(=O)c2cccc(-c3nnc(-c4ccccc4)o3)c2)cc1	inconclusive: 63.1 µM [inhibitor, single point]	
CSc1ccccc1OCc1cc(C(=O)N(C)Cc2ccc3nsnc3c2)no1	inconclusive: 31.6 µM [quencher, side channel, single point]	
O=C(CN1CCN(c2ccc(Cl)cc2[N+](=O)[O-])CC1)N1CCOCC1	inconclusive: 15.8 µM [quencher, side channel, partial curve]	
CCOC(=O)N1CCN(c2ncnc3nc[nH]c23)CC1	inconclusive: 4.47 µM [quencher, side channel, partial curve]	
Cc1c(OC(C(=O)O)c2ccccc2)ccc2c(-c3ccccc3)cc(=O)oc12 (stereo not drawn)	inconclusive: 28.2 µM [quencher, side channel, single point]	
COc1ccc(OCCN2C(=O)c3ccccc3C2=O)c([N+](=O)[O-])c1	inconclusive: 15.8 µM [quencher, side channel, partial curve]	
CC(=O)Nc1c(S(=O)(=O)c2ccccc2)c2nc3ccccc3nc2n1Cc1ccccc1	inconclusive: 28.2 µM [quencher, single point]	
CN(C)c1ccc2c(c1)OC(N)=C(C#N)C2c1cccc(F)c1 (stereo not drawn)	inconclusive: 39.8 µM [quencher, single point]	
O=[N+]([O-])c1ccc(N2CCCCC2)cc1SCCO	inconclusive: 17.8 µM [quencher, side channel, partial curve]	
C=CCn1c(SCC(=O)NNC(=O)Nc2ccc(C)cc2)nnc1-c1ccccc1		inactive: -9.55%
COc1cccc(-n2nnnc2S(C)(=O)=O)c1		inactive: -2.91%
CC1CN(CCCCN2C(=O)c3ccccc3C2=O)CC(C)O1 (stereo not drawn)	inconclusive: 35.5 µM [quencher, side channel, single point]	
O=C1C2=C(C(c3ccccc3)=NCCN2)C(c2cccc([N+](=O)[O-])c2)N1c1ccccc1 (stereo not drawn)	inconclusive: 12.6 µM [quencher, side channel, single point]	
CCOC(=O)c1c(NC(=O)C(NCCN(C)C)c2ccccc2)sc2c1CCCC2 (stereo not drawn)		inactive: -3.15%
COc1ccc(-c2nc(NC(=O)CSc3nnc(C)s3)ns2)cc1		inactive: 19.6%
CCNC(=S)N1CCN(CCN2C(=O)c3cccc4cccc(c34)C2=O)CC1	inconclusive: 2.24 µM [quencher, side channel, full curve]	
CCN1/C(=C/c2sc(-c3ccccc3C)c[n+]2C)Sc2ccccc21	inconclusive: 31.6 µM [quencher, side channel, single point]	
Cc1ccc(NC(=O)c2ccc(C(C)(C)C)cc2)cc1-n1cnnn1	inconclusive: 20 µM [quencher, side channel, partial curve]	

From PubChem BioAssay AID2675 (National Center for Advancing Translational Sciences (NCATS), 2010)
